# The whole screen tested about 340,000 compounds, of which about 12,000 (3.5%) were called active. The shares of active, inactive and inconclusive entries below differ from those in the screen. Calls follow the shape of the dose curve; as a rule, active = well fitted inhibition curve with a large enough effect; inconclusive = small, poorly fitted or top-dose-only effect, or another doubt; inactive = no such curve, though single readings can be large or run the other way. No potency is given beside an inconclusive call; the fits are too rough.
# Assay: qHTS Assay for Inhibitors of Hepatitis C Virus (HCV)
# Conditions: Huh7.5.1 HCVcc-Cre (HCVcc is cell-culture hepatitis C virus) infection, luciferase reporter, 44 h; series mostly up to 41.8 µM
# In short: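 A cell-based infection assay in which seeded cells (1,000 per well) receive test compound after 4 h, are inoculated with HCVcc-Cre at approximately 0.5 moi, and are incubated 44 h before luminescence detection.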
# Potency is read from the fitted curve at half-maximal effect; tags tell the direction and shape of the fitted curve.
row,SMILES,Potency
1,COc1cc(OC)c(OC)cc1/C=C1\CCC(C2CCCC2)C1=O (centres undefined),"inconclusive [inhibitor, single point]"
2,Nc1cc(=O)[nH]c(SCc2ccc(Cl)cc2Cl)n1,active: 3.16 µM
3,Cn1cnc2cc(NCc3cccs3)ccc21,inactive
4,Cc1ccc(-n2c(C)c(C)c3c(NCCN(C)C)ncnc32)cc1,"inconclusive [inhibitor, single point]"
5,Cc1ccc(C(=O)NNC(=O)c2ccncc2)cc1S(=O)(=O)N1CCCCC1,"inconclusive [inhibitor, full curve, poor fit]"
6,Nc1ccc2oc(-c3ccc4nc[nH]c4c3)nc2c1,"inconclusive [inhibitor, single point]"
7,O=C(Cn1cnc2c(nnn2Cc2ccc(Cl)cc2)c1=O)NC1CCCC1,"inconclusive [inhibitor, single point]"
8,CC(C)(C)Nc1nc(Nc2ccc([N+](=O)[O-])cc2)nc(NC(C)(C)C)n1,"inconclusive [inhibitor, partial curve]"
9,CCNS(=O)(=O)c1cccc(C(=O)c2c(C)cc3ccccn23)c1,"inconclusive [inhibitor, partial curve]"
10,CCN(CC)CCCNC(=O)c1cc(-c2ccc(Cl)cc2)on1,active: 8.91 µM
11,COc1cccc(CN2CCN(Cc3cccc(Oc4ccccc4)c3)CC2)c1OC,"inconclusive [inhibitor, single point]"
12,Cc1ccc(-c2nc3nc4ccccc4nc3n2Cc2ccco2)cc1,inactive
13,Cc1cc(O)cc2c1C1CCC3(C)C(O)CCC3C1C=C2 (centres undefined),"inconclusive [inhibitor, partial curve, poor fit]"
14,Cc1ccc(CSc2nc3c(c(=O)[nH]c(=O)n3C)n2CCC(C)C)cc1,"inconclusive [inhibitor, partial curve, poor fit]"
15,O=C(CN1C2CCCC1CC(NC(=O)c1ccccc1)C2)Nc1ccccc1C(F)(F)F (centres undefined),"inconclusive [inhibitor, single point]"
16,Cc1ccnn1CC(=O)N/N=C/c1ccc([N+](=O)[O-])s1,"inconclusive [inhibitor, single point]"
17,CCCCN1C[C@H](Cc2ccccc2)[C@@H](CC(=O)NCc2ccc(OC)cc2)C1=O,"inconclusive [inhibitor, single point]"
18,CCCn1cnc2c(c1=O)c1nc3ccccc3nc1n2CCc1ccccc1,"inconclusive [inhibitor, single point]"
19,COc1ccc(CNC(=O)CN(c2ccc(OC)c(Cl)c2)S(=O)(=O)c2ccc(C)cc2)cc1,"inconclusive [inhibitor, single point]"
20,CCN1C(=O)[C@H]2[C@@H](c3ccc(-c4ccc(F)cc4)c(OC)c3)N3CCCC[C@@]3(C(=O)OC)[C@H]2C1=O,"inconclusive [inhibitor, partial curve]"
21,CCOC(=O)C1=C(C)NC(C)=C(C(=O)OCC)C1c1cc2ccc(C)cc2[nH]c1=O,"inconclusive [inhibitor, single point]"
22,CCN(C(=O)c1cc(Cl)ccc1OC)c1ccccc1C,"inconclusive [inhibitor, single point]"
23,CC(C)c1nc2sc(C(=O)O)c(N)c2c2c1CCCC2,inactive

row,SMILES,Potency
1,Cc1ccc(S(=O)(=O)Nc2cccc(C(=O)N3CCC(C(N)=O)CC3)c2)cc1,inactive
2,COc1cccc(CC(NC(C)=O)C(=O)NC2CCN(S(=O)(=O)c3cccc4ccccc34)CC2)c1 (centres undefined),"inconclusive [inhibitor, single point]"
3,O=C(COC(=O)CCN1C(=O)/C(=C\C=C\c2ccccc2)SC1=S)Nc1ccc(Br)cc1,inactive
4,COc1ccc(NC(=O)c2cccc(Oc3ccccc3)c2)cn1,"inconclusive [inhibitor, single point]"
5,CC(C)NC(=O)c1ccccc1NS(=O)(=O)c1ccc(Br)s1,"inconclusive [inhibitor, full curve, poor fit]"
6,CCc1c(C)[nH]c2ccccc2c1=O,inactive
7,CC(=O)N1CCc2cc(S(=O)(=O)NCCC(=O)NCCc3ccc(Cl)cc3)ccc21,"inconclusive [inhibitor, single point]"
8,Cc1nn(C(=O)CCCC(=O)NCc2ccccc2)c2ccccc12,active: 22.4 µM
9,COc1ccc(-c2cc(C#N)nc(N3CCN(C)CC3)n2)cc1,active: 12.6 µM
10,COc1ccc(Br)cc1S(=O)(=O)N1CCCC1,inactive
11,Cc1c(C=O)c2ccccc2n1CCOc1ccccc1F,"inconclusive [inhibitor, single point]"
12,CCOc1ccc(NCc2cccn2-c2nnc(N3CCC(C(=O)NCCCN4CCCCC4)CC3)s2)cc1,"inconclusive [inhibitor, single point]"
13,COc1ccc(CN2C(=O)c3cccnc3C2=O)cc1S(=O)(=O)N(C)c1cccc(C)c1,inactive
14,Cc1ccc(S(=O)(=O)N2C(=O)c3cccc4cccc2c34)cc1,"inconclusive [inhibitor, single point]"
15,COc1cc(/C=C/C(=O)NC(C)CCc2ccccc2)cc(OC)c1OC (centres undefined),"inconclusive [inhibitor, full curve]"
16,Cc1ccccc1NC(=O)Nc1ccc(C(F)(F)F)cc1,"inconclusive [inhibitor, single point]"
17,CCCCc1c(C(=O)O)cc(OC)cc1C(=O)O,inactive
18,COc1ccc(Cc2nc3ccccc3[nH]2)cc1OC,"inconclusive [inhibitor, single point]"
19,O=C1OCCC1Sc1nnc(-c2ccco2)o1 (centres undefined),"inconclusive [inhibitor, single point]"
20,NC(=O)[C@@H]1CCCN1C(=O)[C@@H](Cc1cnc[nH]1)NC(=O)[C@@H]1CCC(=O)N1,inactive
21,Cc1cccc(-n2ncc3c(N(C)Cc4ccccc4)ncnc32)c1,"inconclusive [inhibitor, single point]"
22,O=C1c2cc(F)ccc2-n2c1nc1ccccc1c2=O,active: 2.51 µM
23,C/C(=N\NC(=O)CC1N=C(Cc2ccccc2)NNC1=O)c1ccc(C)cc1 (centres undefined),"inconclusive [inhibitor, single point]"

row,SMILES,Potency
1,Cc1ccc(SCc2cc(=O)[nH]c(/N=C(\N)Nc3ccccc3Sc3ccccc3)n2)cc1,inactive
2,CC(=O)N(Cc1ccc(F)cc1)C1=C(NCCc2ccccc2)C(=O)c2ccccc2C1=O,active: 10 µM
3,COC(=O)c1ccccc1NC(=S)N(Cc1ccc2c(c1)OCO2)Cc1cc2cc(C)ccc2[nH]c1=O,"inconclusive [inhibitor, single point]"
4,Cc1ccc(-c2cc(C(F)(F)F)n3ncc(C(=O)N4CCN(C)CC4)c3n2)cc1,"inconclusive [inhibitor, single point]"
5,CC1(C)CC(C(CCN(Cc2ccccc2)C(=O)c2ccco2)c2ccc(F)cc2)CCO1 (centres undefined),"inconclusive [inhibitor, single point]"
6,COc1ccc2[nH]c3c(c2c1)CCN1C(=O)C(CC(=O)NCc2ccco2)C[C@H](C(=O)N2CCCCC2)[C@@]31CCc1ccccc1 (some centres undefined),active: 0.562 µM
7,Cn1cccc1/C=C1/C(=O)NC(=S)N(Cc2ccc(F)cc2)C1=O,"inconclusive [inhibitor, partial curve]"
8,Cc1ccc(S(=O)(=O)c2nc(S(C)(=O)=O)sc2N2CCC(C(N)=O)CC2)cc1,inactive
9,Cc1ccc(NC(=O)C2CCCO2)c(Br)c1 (centres undefined),inactive
10,Cc1nnc(SCC2=C(C(=O)O)N3C(=O)C(NC(=O)Cn4nc(C(F)F)cc4C)C3SC2)s1 (centres undefined),inactive
11,O=C(CSc1nnc(-c2cc3ccccc3cc2O)n1Cc1ccco1)c1ccc(F)cc1,active: 15.8 µM
12,Cc1ncoc1C(=O)Nc1ccccc1C(N)=O,"inconclusive [inhibitor, full curve]"
13,C#CC(=O)N(c1ccc(OC)c(OC)c1)C(C(=O)NC1CCCC1)c1cccs1 (centres undefined),active: 0.316 µM
14,COc1cc2cnc(-c3ccccc3)c(-c3ccc(C#N)cc3)c2cc1OC,"inconclusive [inhibitor, single point]"
15,Cc1ccc(C)c(S(=O)(=O)N2CCCC2CNC(=O)C(=O)NCCc2ccccc2)c1 (centres undefined),"inconclusive [inhibitor, partial curve]"
16,Clc1ccc(Cc2ccccn2)cc1,inactive
17,CCn1c(-c2cc(Br)cc(OC)c2O)nc2cc(S(=O)(=O)N(C)C)ccc21,"inconclusive [inhibitor, single point]"
18,Cc1ccc(S(=O)(=O)N2CCCCC2)cc1NC(=O)CCOc1ccccc1,"inconclusive [inhibitor, partial curve]"
19,CCC(=O)c1ccc(OCc2ccc(C(=O)OC)cc2)cc1,inactive
20,Cc1cc(NC(=O)CC23CC4CC(C2)CC(CC(=O)Nc2cc(C)on2)(C4)C3)no1,"inconclusive [inhibitor, full curve, poor fit]"
21,O=C(Nc1cccc2ccccc12)c1ccc([N+](=O)[O-])o1,"inconclusive [inhibitor, single point]"
22,COc1ccc(-c2csc(Cc3nc(O)cs3)n2)cc1,"inconclusive [inhibitor, partial curve]"
23,CN(CCc1ccccc1)C(=O)c1cccc(NC(=O)Cc2cccc(NC(=O)C3CCN(C(=O)C4CCC4)CC3)c2)c1,"inconclusive [inhibitor, full curve, poor fit]"
